The source gives no read counts; variants with many changes may rest on few reads.
B1: LINE1-mini (parent)
chain: GGCAGAGCUCAACACAGCGUGGCAAAGUGGCUGUGGCUAGACUGCC

Variants of: B1
Assay: self-cleavage, relative activity (ratio to wild type); higher = more cleavage; in vitro, sequencing; the parent is a self-cleaving ribozyme

Variant | self-cleavage
GGCCGAGCUCAACUCAGCGUGGCAAAGUGGCUGUGGUUGGACUGCC | 0.14
GGCCGAGCUCAACACAGCGUGGCACAGUGCAUGUGGCUAGACUGCC | 0.42
GGCCGAGCUCAACACAGCGUGGCAAUGUGGCUCGGGCUAGACUGCC | 0.09
GGCCGAGCUCAACACAGCGUGGCAAAGUGGCUGUGGCUCGACUGGC | 0.58
GGCCGAGCUCCACACAGCGUCGCAAAGUGGCUGUGGCUAGACUGCC | 0.05
GGCCGAGCUCAACACAGCGUGGCUAAUGGGCUGUGGCUAGACUUCC | 0.02
GGCCGAGCUCAACAAAACGUGGCAAAGUGGCUGUGGCUAGACUCCC | 0.07
GGCCAAGCUCAAUACAGCGUGGCAAAGUGGCUGUGGCUAGACUGCC | 0.04
GGCCGAGUUGAACACAGCGUGGCAAAUUGGCUGUGGCUAGACGGCC | 0
GGCCGAGCUCAACACAGCGUGGCAUAGUUACUGUGGCUAGAAUGCC | 0.09
GGCCGAACUAAACACCGCGUGGCAAAGUGGCUGUGGCUAGACUGCC | 0.03
GGCCGACCUCAAUACAGCGUGGCAAAGUGGCUGUGGCUAGACUUCC | 0.48
GGCCGAGCUAAACACAGCCUGGCAAAGUGGCUGUGGCGAAACUGCC | 0.01
GGCCGAGCUCAACAGAGCGUGGCAAAGUGGCUGUGGCUAGACUGCA | 0.02
GGCCGAGCUAACCACAGCGUGGCAAAGUGGCUGUGGCUAGACUUCC | 0
GGCCGAGCUAAACACAGCGUGGUAAAGUGGCUGUGGCUAGACUGCC | 0.04
GGCCAUGAUCUACACAGCGUGGCAAAGUGGCUUUGGCUAGACUGCC | 0.02
GGCCGAGCUCAACACAGAGUGGCAGAAUGGCUGUGGCUAGACCGUC | 0.01
GGCCGAGCUCAACACAGCGUGGCAAAGUGGCUGUGGCUUGACUGUC | 0.06

Variant | self-cleavage
GGCCGAGCUCAACACAGUGCGGCAAAGUGGCUGUGGCUAGACCGCC | 0.05
GGCCGAGCUCAACACAGAGUGGCAAAGUGGAUGUGGCUAAACAGCC | 0.17
GGCCCCGCUCAACACAGCGUGGCAAAGUGGCUGUGGCUAUACUGAC | 0.14
GGCCGAGCUCUACACAGCCUGGCAAAGUGGCUGUGGCUAGACUGCC | 0.03
GGCCGAACUCAACUCAGCGUGGCAAAGUGGCUGUGGCUAGACUGCC | 0.01
GGCCGAGCUCAACGCAGCGUGGGAAAGUGGCUGUGGCUAGACUGCC | 0.39
GGCCGAGCUCAACACCGCCUGGCAAAGUGGCUGUGGCUAGACUGCC | 0.08
GGCCGAGCUCAACACAGCGUGGCAAAGUGGGUGUGGCAAUACUGGC | 0.01
GGCCGAGCUCAACACGGCGUGGUAAAGUGGCCGUGGCUAGAGUCCC | 0.04
GGCCGAGCUAUAAACAGCGUCGCAAAGUGGGUGUGGCUAGACUGCC | 0.02
GGCCUAGGUCAACACAGCGUGGCAAAGUGGCUGUGGCUAGACUGCC | 0.44
GGCCGAGCUAAACACAGCGUGGCAAAGUGGCUGUGGCUAAACUGCC | 0.02
GGCCGAGCUAAACACAGCGUGGCAAAGUGGCUGUGGCUAUACUGCC | 0.06
GGCCGAGCUCAACAGAGCGUGGCAAAGUGUCUGUGGCUAGACUGCC | 0.01
GGCCGAGCUCAAAACAGAGUGGCAAAGUGGCUGUGGCUAGACUUCC | 0
GGCCGAGCUCAACAAAGGGUGGCAAAGUGGCUGUGGCUAGACUGCC | 0.1
GGCCGAGCUCAACACAGAGUGGCAAAGUGGUUGUGGCUAGACUGCC | 0.04
GGCCGAGCUCAACAGAGCCUGGGAAAGUGGCUGUGGCUAGACUGCC | 0.04
GGCCGAGCUCAACAGAGCGUGGCAAACUAGCUGUGGCUAGAUUGCC | 0.01

Variant | self-cleavage
GGCCGAGCUCAACACAGGGUGGCAAAGUGGCUGUGGCUAGACUGAC | 0.06
GGCCGAACUCAACACAGCGUGGUAAAGUGGCUGUGGCAAGACAGCC | 0.2
GGCCGAGCUCAACGCAGCGUGGCAAAGUGGCUGUGGCUAGAUUGCC | 0.17
GGCCGAGCUCCACACAGCGUGGCAAAUUGGCUUUGGUUAGACUGCC | 0
GGCCGAGCUCAGCACAGCGUGGCAAAGUUGCUGUGGCUAGACUGCC | 0.13
GGCCGAGCUCAGCACACCGUGGCAAAGUGGCUGUGGCUUGACUGCC | 0.01
GGCCGAGCUAAACACAGCGUGGCUAAGUUGCUGUAGCUAGACUGUC | 0.01
GGCCGAGCUCAACACAGCGUGGCGAUGUGGCGGUGGCUAGACUGCC | 0.05
GGCCGAGCUCAACACAGAGUGGCAAAGUGGCUGUUGCUAUACUGCC | 0.01
GGCCGAGCUCAACACAGAGUGGCAAAGUGGCUUUGGAUAAGCUGCC | 0.01
GGCCGAGCUUAACACAGCGUGGCAUAGUGGCUGUGGCUAGACUGCU | 0.1
GGCCGAGCUCAACACCGCGUGGCAAAGUGGCUGUGGCUAUACUUCC | 0.11
GGCCGAGCUAAACACAGCGUGGCAAAGUGACUGUGGCUAGACUGCC | 0.03
GGCCGAGCUCAACACAGCGUGGCAAAGUGGCUGUGGUUAGCCUUCC | 0.08
GGCCGAGCUUAGCACAGCGUGGCAAAGUGGCCGUGGCUAGACUGCC | 0.04
GGCCGAGCUCAACAAAGCGUGCCAAAGUGGCAGUGGCUAGUCUGCC | 0.06
GGCCGAGCUCAACACAGCGUGGAAAAUUGGCUGUGGCUAGACUGCC | 0.04
GGCCGAGCUAGACACAGCGUGGCAAAGUGGCUGCGGCUAGACUUCC | 0.01

— the RNAGym collection of RNA variant scans (doi:10.7554/elife.90254)
